The values below come from publication PMC4063901.

The target of the experiment is T1, human P2Y1 receptor (hP2Y1R) protein, N-terminally tagged with mTFP1 (human), P47900.
T1 chain: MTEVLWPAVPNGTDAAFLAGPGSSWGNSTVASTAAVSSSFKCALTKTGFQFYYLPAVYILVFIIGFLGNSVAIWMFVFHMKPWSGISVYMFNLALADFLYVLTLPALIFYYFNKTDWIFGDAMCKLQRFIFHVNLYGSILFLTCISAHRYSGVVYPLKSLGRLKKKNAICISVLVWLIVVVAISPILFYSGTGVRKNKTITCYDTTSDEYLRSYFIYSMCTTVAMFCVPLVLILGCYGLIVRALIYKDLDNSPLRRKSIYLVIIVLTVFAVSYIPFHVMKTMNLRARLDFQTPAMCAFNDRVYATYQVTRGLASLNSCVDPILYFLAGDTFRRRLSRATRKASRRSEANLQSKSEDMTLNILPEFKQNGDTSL
The experiment is described as follows: FRET or BRET; homo-FRET read as loss of steady-state fluorescence anisotropy (ssFAIM) in TIRF illumination, with EPI on the same field for comparison; living HEK293T cells expressing mTFP1-P2Y1R; apyrase 2 U/ml for 4 h at 37°C; HBSS with 1 mM MgCl2 and 1 mM CaCl2; without agonist, with agonist 2-MeS-ATP (10 µM, 30 min, 37°C), or with antagonist MRS 2500 (1 µM). The note with it: remark: other sources report otherwise. (BRET reads energy transfer from a luciferase to a nearby fluorophore.)

B1: human P2Y1 receptor (hP2Y1R) protein, N-terminally tagged with mTFP1, P47900 1-373 (receptor)
chain: MTEVLWPAVPNGTDAAFLAGPGSSWGNSTVASTAAVSSSFKCALTKTGFQFYYLPAVYILVFIIGFLGNSVAIWMFVFHMKPWSGISVYMFNLALADFLYVLTLPALIFYYFNKTDWIFGDAMCKLQRFIFHVNLYGSILFLTCISAHRYSGVVYPLKSLGRLKKKNAICISVLVWLIVVVAISPILFYSGTGVRKNKTITCYDTTSDEYLRSYFIYSMCTTVAMFCVPLVLILGCYGLIVRALIYKDLDNSPLRRKSIYLVIIVLTVFAVSYIPFHVMKTMNLRARLDFQTPAMCAFNDRVYATYQVTRGLASLNSCVDPILYFLAGDTFRRRLSRATRKASRRSEANLQSKSEDMTLNILPEFKQNGDTSL
In turn, B1 showed a fluorescence anisotropy r (TIRF mode, no agonist) of 0.224 and a fraction of constitutive dimers in the cell membrane (before agonist treatment) of 45%.
